# Experimental data taken from PubChem BioAssay AID720507 (National Center for Advancing Translational Sciences (NCATS), 2013).
# The whole screen tested about 2,300 compounds, of which about 140 (6.1%) were called active. This list was built around the results that the source calls inconclusive (neither active nor inactive); the mix of calls is not that of the screen. Calls follow the shape of the dose curve; as a rule, active = well fitted activation curve with a large enough effect; inconclusive = small, poorly fitted or top-dose-only effect; inactive = flat fitted curve, though single readings scatter. No potency is given beside an inconclusive call; the fits are too rough.
# Molecular target: D(2) dopamine receptor (Homo sapiens) (UniProt P14416)
# UniProt P14416, sequence (P14416 whole entry, looked up): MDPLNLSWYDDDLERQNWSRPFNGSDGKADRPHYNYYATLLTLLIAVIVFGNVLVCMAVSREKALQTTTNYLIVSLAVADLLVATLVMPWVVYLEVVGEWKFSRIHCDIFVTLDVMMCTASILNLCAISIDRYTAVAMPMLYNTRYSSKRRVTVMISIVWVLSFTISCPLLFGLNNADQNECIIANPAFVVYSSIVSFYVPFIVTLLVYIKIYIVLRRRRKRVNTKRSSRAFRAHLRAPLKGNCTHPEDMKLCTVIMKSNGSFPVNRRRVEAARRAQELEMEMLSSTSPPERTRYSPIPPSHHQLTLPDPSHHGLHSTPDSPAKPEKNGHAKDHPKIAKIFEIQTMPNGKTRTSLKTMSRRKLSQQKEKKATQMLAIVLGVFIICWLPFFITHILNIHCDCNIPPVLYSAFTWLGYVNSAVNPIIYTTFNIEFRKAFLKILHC
# Assay: qHTS of D3 Dopamine Receptor Agonist: D2 Dopamine Receptor B-arrestin Agonist Counterscreen; also: nearly all actives have a fitted effect of over 70% in size; as to activation: % of control where 0% means no effect
# Conditions: DiscoveRx PathHunter D2 beta-arrestin, luminescence, 90 min; series mostly up to 76.9 µM; activation: at the top concentration
# In short: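 Luminescent read-out of β-arrestin recruitment in DiscoveRx D2 cells, taken 1 hour after adding detection reagent (Galacton Star, Emerald II, PathHunter buffer, 1:5:19). Compound stimulation lasted 90 minutes at 37 deg C, 5% CO2.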
# Potency is read from the fitted curve at half-maximal effect; tags tell the direction and shape of the fitted curve.
Compound,activation,Potency
COc1cc(C2N(Cc3ccccc3)CCN2Cc2ccccc2)ccc1OC(C)=O,inactive: -5.32%,
CCCCC(=O)Nc1ccc2c(c1)nc(CCN1CCN(c3ccccn3)CC1)n2C,,"inconclusive [activator, partial curve]"
O=C(c1cccs1)N1CCN(Cc2ccccn2)CC1,,"inconclusive [activator, full curve]"
CCOC(=O)C1CCN(CC(O)COc2ccc(C(=O)CC)cc2)CC1 (centres undefined),,"inconclusive [activator, partial curve]"
CCOC(=O)C1CCN(CC(O)COc2ccc(C(C)(C)CC)cc2)CC1 (centres undefined),,"inconclusive [activator, full curve]"
O=C(NCc1cccnc1)C(=O)NCC(c1ccco1)N1CCN(c2ccccc2F)CC1 (centres undefined),,"inconclusive [activator, full curve]"
Cc1c(CC(=O)N2CCN(C(=O)C3COc4ccccc4O3)CC2)c(=O)oc2c(O)c(O)ccc12 (centres undefined),,active: 31.6 µM
COc1ccc(OC)c(CNc2ccc([N+](=O)[O-])cc2C)c1,inactive: 3.12%,
Fc1ccccc1N1CCN(CC2CCCCC2)CC1,inactive: 22.8%,
CC(C)(C)C1CCC(OCC(O)CN2CCN(c3ccccn3)CC2)CC1 (centres undefined),,active: 20 µM
COc1ccc(C2N(Cc3ccccc3)CCN2Cc2ccccc2)cc1[N+](=O)[O-],inactive: -4.57%,
OC(COCc1ccc(Cl)cc1)CN1CCN(c2ccccn2)CC1 (centres undefined),,"inconclusive [activator, full curve]"
COc1ccc(NS(=O)(=O)c2ccc(C)c(C(=O)N3CCC3)c2)cc1,inactive: 26.2%,
O=C(CN1CCN(c2ccccc2)CC1)Nc1ccc(Oc2ccccc2)cc1,,"inconclusive [activator, full curve]"
O=C1CCC(C(=O)N2CCN(c3ccccc3)CC2)CN1CC1CCCCC1 (centres undefined),,"inconclusive [activator, single point]"
CCCCN(C)CCCNC(=O)CC1Oc2ccccc2NC1=O (centres undefined),,"inconclusive [activator, partial curve]"
Clc1ncc(CN2CCN(c3ccccc3)CC2)s1,,active: 5.01 µM
O=C(NCCCN1CCN(c2ccccc2F)CC1)C1CCN(S(=O)(=O)c2cccs2)CC1,,active: 10 µM
Cc1ccc(OCCN2CCN(C(=O)CCC(=O)Nc3nnc(C)s3)CC2)cc1,inactive: 1.28%,
Cn1c(C(=O)NCCCN2CCN(c3ccccc3F)CC2)cc2c(=O)n(C)c3ccccc3c21,,"inconclusive [activator, full curve, poor fit]"
COC(=O)c1ccc(NC(=O)CN2CCN(c3ccccn3)CC2)cc1,,"inconclusive [activator, partial curve]"
COc1cccc2c1cc1c(=O)n(CC(=O)N3CCCCCC3)nc(C)n12,,"inconclusive [activator, full curve, poor fit]"
C=CCn1c(-c2ccc(OC)cc2)csc1=Nc1c(C)n(C)n(-c2ccccc2)c1=O,,"inconclusive [activator, full curve, poor fit]"
COCCN(C(=O)C1=COCCO1)c1c(N)n(CC(C)C)c(=O)[nH]c1=O,inactive: 22.5%,
Cc1cc(=O)oc2cc(OCC(O)CN3CCN(c4ccccc4)CC3)ccc12 (centres undefined),,"inconclusive [activator, full curve]"

Compound,activation,Potency
c1ccc(N2CCN(C3CCSC3)CC2)cc1 (centres undefined),inactive: 9.51%,
Cc1ccc(C)c(CN2CCN(c3ncccn3)CC2)c1,,"inconclusive [activator, full curve]"
COc1ccc(-c2[nH]ncc2CN2CCN(c3ccccn3)CC2)c(OC)c1,inactive: 9.08%,
Clc1ccc(CN2CCN(c3ccccc3)CC2)cn1,,"inconclusive [activator, partial curve]"
O=C(c1ccco1)N1CCN(CC(O)COc2ccc(Br)cc2)CC1 (centres undefined),,"inconclusive [activator, full curve]"
c1ccc(-c2ccc(CN3CCN(c4ncccn4)CC3)cc2)cc1,,"inconclusive [activator, partial curve]"
COc1cccc(OCC(O)CN2CCN(c3ccccn3)CC2)c1 (centres undefined),,active: 3.55 µM
COc1cc(Br)cc(CN2CCN(c3ncccn3)CC2)c1O,,active: 7.94 µM
N=C(N)N1CCN(Cc2ccccc2)CC1,inactive: -3.22%,
CSCCC(NC(=O)COc1ccccc1)C(=O)N1CC(C)OC(C)C1 (centres undefined),inactive: -2.18%,
CCOC(=O)C1CCN(Cc2cnc(Oc3ccc(N)cc3)s2)CC1,,"inconclusive [activator, full curve]"
O=C(Cn1cnc2ccccc2c1=O)N1CCN(Cc2ccc3c(c2)OCO3)CC1,,"inconclusive [activator, partial curve]"
Cc1c(N=c2scc(-c3ccccc3)n2C)c(=O)n(-c2ccccc2)n1C,,"inconclusive [activator, partial curve]"
CN=c1scc(-c2ccco2)n1/N=C/c1ccc(O)c(O)c1,,active: 35.5 µM
OCC1(Cc2cccc(C(F)(F)F)c2)CCN(Cc2cc3ccccc3o2)CC1,,active: 39.8 µM
COc1cc(OC)c(OC)cc1CCC(C)NCCC(c1ccccc1)c1ccccc1 (centres undefined),,"inconclusive [activator, full curve]"
Cc1cccc(NC(=O)N2CCc3ccccc3C2)c1C,inactive: 0.48%,
N#Cc1c(/N=C/c2ccc(-c3ccc(C(=O)O)c(Cl)c3)o2)sc2c1CCCC2,,"inconclusive [activator, full curve]"
CN(C)S(=O)(=O)c1cc(NC(=O)CN2CCN(c3ccccc3)CC2)ccc1Cl,,"inconclusive [activator, full curve]"
c1ccc(CCCN2CCN(c3ccccn3)CC2)cc1,,"inconclusive [activator, partial curve]"
Cc1cc(C)nc(/N=C(\N)Nc2ccc(CC(=O)OC(C)C)cc2)n1,,"inconclusive [activator, full curve, poor fit]"
COC(=O)c1cc2c(ccn2-c2ccc(F)cc2)n1Cc1ccc(OC)cc1,,"inconclusive [activator, full curve, poor fit]"
Cn1c(N2CCN(c3ccccn3)CC2)nc2c1c(=O)n(Cc1ccc(Cl)cc1)c(=O)n2C,,"inconclusive [activator, full curve]"
Cc1cc(C)c(C)c(OCC(O)CN2CCN(c3ccccn3)CC2)c1 (centres undefined),,active: 3.98 µM
OC(COCc1cccs1)CN1CCN(c2cccc(Cl)c2)CC1 (centres undefined),,"inconclusive [activator, partial curve]"

Compound,activation,Potency
CCOC(=O)N1CCN(Cc2ccc(OCC(O)CN3CCCCC3)cc2)CC1 (centres undefined),,"inconclusive [activator, partial curve]"
Cc1nn(-c2ccc(C(=O)N3CCN(S(=O)(=O)c4ccccc4C(F)(F)F)CC3)cc2)c(C)c1Cl,,active: 31.6 µM
O=C(c1ccco1)N1CCN(Cc2cccc(F)c2)CC1,,active: 20 µM
O=C(c1cccc(C(=O)N(c2ccccn2)C2CCCCC2)c1)N(c1ccccn1)C1CCCCC1,,"inconclusive [activator, full curve]"
CCCN(CC1CC1)C(=O)COC(=O)c1oc2c(F)cccc2c1C,,"inconclusive [activator, single point]"
O=C(NCC(c1ccco1)N1CCN(c2ccccc2F)CC1)c1ccco1 (centres undefined),,"inconclusive [activator, partial curve]"
CCN(CCCC(=O)c1ccc(F)cc1)CCc1ccccc1,inactive: 16.6%,
CCCN(CCC)CCNC(=O)c1cc2c(-c3ccccc3F)nn(C)c2s1,,"inconclusive [activator, full curve]"
CC1(C)CCc2cc(CN3CCN(c4ccccn4)CC3)ccc2O1,,"inconclusive [activator, full curve]"
Cc1c(NC2=C(Cl)C(=O)N(c3ccccc3Cl)C2=O)c(=O)n(-c2ccccc2)n1C,inactive: -4.02%,
CCC1CCc2c(sc(NC(=O)C3CC=CCC3C(=O)O)c2C#N)C1 (centres undefined),,"inconclusive [activator, single point]"
C/C(=N\NC(=O)c1nnn(-c2nonc2N)c1-c1ccc2c(c1)OCO2)c1ccccc1,inactive: -6.75%,
COc1ccccc1N1CCN(CC(O)COc2ccc(S(=O)(=O)N3CCOCC3)cc2)CC1 (centres undefined),,"inconclusive [activator, partial curve]"
CC(C)c1ccc(OCC(O)CN2CCN(c3ccccc3)CC2)cc1 (centres undefined),,"inconclusive [activator, full curve]"
Cc1ccc(S(=O)(=O)N2CCOCC2)cc1NC(=O)CNCc1cccnc1,,active: 35.5 µM
Cc1ccccc1-c1ccc(/C=C2/SC(N3CCOCC3)=NC2=O)o1,,"inconclusive [activator, full curve]"
CN(C)CCNC(=O)C12CC3(C)CC(C)(CC(C)(C3)C1)C2,inactive: -3.39%,
CC(=O)c1cccc(CN2CCCC(N3CCN(c4ccccc4F)CC3)C2)c1 (centres undefined),,"inconclusive [activator, full curve, poor fit]"
Cn1nnnc1Sc1ncnc2scc(-c3cccs3)c12,inactive: -2.32%,
CCc1cccc(CC)c1NC(=S)NCCc1ccc(O)c(O)c1,,"inconclusive [activator, full curve]"
CCC(=O)Nc1ccc2c(c1)nc(CCN1CCN(c3ccccc3)CC1)n2C,inactive: 6.55%,
CC(CCc1ccc(O)cc1)NCc1ccc(Br)cc1 (centres undefined),inactive: 2.25%,
COc1ccc(S(=O)(=O)N2CCSCC2)cc1,inactive: -3.27%,
CSCCC(=O)N1CC[C@@H](N2CCN(c3ccccc3F)CC2)[C@H](O)C1,,"inconclusive [activator, partial curve]"
